Measured values from PMC4336329 (PLoS ONE, 2015).
Screen size: about 310,000 compounds; about 2,200 (0.71%) showed an effect of 50% or more. Effects have a minus sign here. This is one part of the list.

These molecules were tested against human ether-à-go-go-related gene (hERG) potassium channel (human, UniProt Q12809) (assay: primary screen, population patch clamp on CHO cells stably expressing hERG).
Sequence of human ether-à-go-go-related gene (hERG) potassium channel (Q12809 whole entry, looked up): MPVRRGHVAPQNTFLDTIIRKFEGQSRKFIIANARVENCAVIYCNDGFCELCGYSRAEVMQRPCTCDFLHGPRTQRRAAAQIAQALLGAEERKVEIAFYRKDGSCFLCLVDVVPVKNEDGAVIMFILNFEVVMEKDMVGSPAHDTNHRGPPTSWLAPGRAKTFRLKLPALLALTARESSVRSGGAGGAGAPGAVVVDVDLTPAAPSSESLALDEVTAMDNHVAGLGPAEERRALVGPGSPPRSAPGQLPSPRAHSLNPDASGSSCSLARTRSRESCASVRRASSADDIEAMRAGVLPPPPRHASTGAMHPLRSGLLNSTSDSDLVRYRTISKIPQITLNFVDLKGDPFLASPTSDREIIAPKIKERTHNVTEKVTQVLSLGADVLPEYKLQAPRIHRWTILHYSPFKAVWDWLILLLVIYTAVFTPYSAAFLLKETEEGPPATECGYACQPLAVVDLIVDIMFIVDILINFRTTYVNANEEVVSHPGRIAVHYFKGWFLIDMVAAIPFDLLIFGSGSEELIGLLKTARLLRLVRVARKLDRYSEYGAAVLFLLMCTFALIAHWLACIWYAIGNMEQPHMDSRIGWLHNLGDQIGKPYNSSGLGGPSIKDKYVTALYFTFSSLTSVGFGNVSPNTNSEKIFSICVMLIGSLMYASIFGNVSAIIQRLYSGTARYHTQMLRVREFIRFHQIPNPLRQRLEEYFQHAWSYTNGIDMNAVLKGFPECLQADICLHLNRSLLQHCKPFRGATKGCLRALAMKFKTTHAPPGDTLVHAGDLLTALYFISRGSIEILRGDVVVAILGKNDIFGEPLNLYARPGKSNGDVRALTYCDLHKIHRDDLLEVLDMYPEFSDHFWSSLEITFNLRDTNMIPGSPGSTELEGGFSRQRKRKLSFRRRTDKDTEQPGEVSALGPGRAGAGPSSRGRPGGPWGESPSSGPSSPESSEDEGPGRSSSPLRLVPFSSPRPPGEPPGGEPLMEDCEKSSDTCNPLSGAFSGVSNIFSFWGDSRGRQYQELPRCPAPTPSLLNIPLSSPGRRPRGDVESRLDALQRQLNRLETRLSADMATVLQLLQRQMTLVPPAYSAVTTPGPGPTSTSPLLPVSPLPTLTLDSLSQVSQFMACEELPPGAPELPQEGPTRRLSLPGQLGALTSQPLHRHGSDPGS

SMILES	hERG current change (%, negative = inhibition) at 1uM [%]
CC1(C)CC(=O)/C(=C(\O)CCCN2C(=O)c3ccccc3C2=O)C(=NCCO)C1	8.29
C=CCC(c1ccccc1F)N(CCN1CCOCC1)C(=O)Nc1cccc(Cl)c1 (stereo not drawn)	10.8
Cc1ccc(Cl)c(NC(=O)CN(C)CC(=O)Nc2ccc(F)c(F)c2F)c1Cl	1.28
CCCCn1c(O)c(C(C)=NC(Cc2c[nH]c3ccccc23)C(=O)OC)c(=O)[nH]c1=O (stereo not drawn)	-8.88
COC(=O)c1c(NC(=O)CN2C(=O)NC(CCc3ccccc3)C2=O)sc2c1CCCCC2 (stereo not drawn)	7.47
COc1ccccc1NC(=O)Cn1nnc(-c2ccccc2NC(=O)c2cc3ccccc3oc2=O)n1	11.2
COCCN1C=C(C(=O)OC)C(c2ccccc2Cl)C(C(=O)OC)=C1	17.3
ON1C(c2ccccc2)CC2(O)c3nonc3CCC12 (stereo not drawn)	-0.372
N/C(=N\OC(=O)CCC1CCCC1)c1ccc(Br)cc1	-6.36
O=C(Nc1cccc([N+](=O)[O-])c1)N1CCN(c2ccccc2)CC1	-12.7
Cn1c(=O)cc(SCC(=O)N2CCC3(CC2)OCCO3)c2ccc(Cl)cc21	-14.4
COc1ccc(NC(=O)CSc2ncnc3[nH]ncc23)cc1	10.3
CCN(Cc1ccccc1)C(=O)CCc1nc(CN2CCN(C(=O)c3ccc([N+](=O)[O-])cc3)CC2)no1	-10.6
Clc1ccc2c(c1)C(c1ccccc1Cl)=NCc1nnc(N3CCN(CCSc4ccccc4)CC3)n1-2.O.O=C(O)/C=C/C(=O)O	-10.8
O=c1cc2c(nn1Cc1ccc(Cl)cc1)-c1ccccc1CC2	9.57
COc1cccc(CNCc2ccccn2)c1OC	7.94
CCOC(=O)CSCCOc1ccc(C=C2C(=O)NC(=O)NC2=O)cc1OC	16.7
Cn1c(=O)n(C)c2cc(S(=O)(=O)NCc3ccccc3)ccc21	8.26
O=C(/C=C/c1ccccc1)N1CCC(Cc2ccccc2)CC1	0.436
COc1ccc(S(=O)(=O)N2CCCC(C(=O)N3CCOCC3)C2)cc1C (stereo not drawn)	8.72
CNc1nc(Nc2ccc(C)c(Cl)c2)c2cnn(C)c2n1	13.3

SMILES	hERG current change (%, negative = inhibition) at 1uM [%]
CCOC(=O)c1[nH]c(C)c(C(=O)N2CCCC(Nc3ccc(C)c(C)c3)C2)c1C (stereo not drawn)	4.33
COc1cc(CNc2ccc3[nH]c(=O)[nH]c3c2)ccc1OCC(=O)NC(C)(C)C	8.94
CC(C)NC(=O)CCS(=O)(=O)c1ccc(Br)s1	16.6
CCOC(=O)c1ccc(NC(=O)c2ccc3c(c2)C(=O)N(Cc2cccnc2)C3=O)cc1	2.77
COc1ccc(-c2nnc(SCC(=O)N3c4ccccc4Sc4ccccc43)o2)cc1	9.22
COc1cccc(N(CC(=O)NC2CCCC2)C(=O)Cn2nnc(-c3ccc(C)cc3)n2)c1	7.63
O=C1N[C@@H](Cc2ccccc2)C(=O)N2[C@@H]1C[C@@]1(Br)c3ccccc3N(S(=O)(=O)c3ccccc3)[C@@H]21	2.53
O=C(/C=C/c1cccs1)c1ccc(N2CCOCC2)cc1	22.6
Cc1cc(Br)ccc1OCC(=O)NNC(=O)c1ccc(NC(=O)C2CC2)cc1	12.8
O=C(/C=C/c1ccccc1)NCC(=O)N/N=C\c1cccnc1	8.35
COc1ccc(N(C(=O)c2ccncc2)S(=O)(=O)c2cccs2)cc1	2.26
COc1ccccc1N1CCN(C(=O)c2cc3c(=O)n4cccc(C)c4nc3s2)CC1	14.1
COCCCn1c(SCC(=O)NNC(=O)c2cccc(O)c2)nnc1-c1ccncc1	8.91
COc1cc(C2C(C#N)=C(N)N(Nc3ccccc3)C3=C2C(=O)CC(C)(C)C3)ccc1OCc1ccccc1 (stereo not drawn)	15
COCCNC(=O)C(c1ccco1)N(C(=O)Cn1nnc2ccccc21)c1ccccc1C (stereo not drawn)	9.38
O=C(/C=C/c1cn(-c2ccccc2)nc1-c1cccc(Cl)c1)N1CCN(c2ccccn2)CC1	11
O=C(NC(=S)Nc1ccc(N2CCOCC2)cc1)c1cccc([N+](=O)[O-])c1	13.5
Cc1ccccc1-c1nc(CS(=O)(=O)CC(=O)N2CCOCC2)c(C)o1	11.4
Cc1nonc1NC(=O)OC1CCCCC1	0.399
CCN(CC)CCNC(=O)c1ccc(NC(=O)c2ccc(Cl)c(S(=O)(=O)N3CCCCCC3)c2)cc1.Cl	1.9
CC(NC(=O)C[n+]1cccc(Br)c1)c1ccccc1.[Cl-] (stereo not drawn)	11.9

SMILES	hERG current change (%, negative = inhibition) at 1uM [%]
CC(C)OC(=O)c1cccnc1N1CCN(c2cccc(Cl)c2)CC1	10.5
NC(=O)NNc1cccc(Cl)n1	13.7
COC(=O)CC1SC(=O)NC1=Nc1ccc(OC)cc1 (stereo not drawn)	5.72
Cc1ccc(OCC(=O)Sc2ccc(C)cc2)cc1	6.84
COc1ccc(-n2c(Cc3cccn3C)nnc2SCC(=O)Nc2ccccc2F)cc1	-9.19
CCc1c(C)nc2ncnn2c1N1CCCC(C(=O)NCc2ccc3c(c2)OCO3)C1 (stereo not drawn)	-2.65
Cc1ccc(NC(=S)NCc2ccccc2)cc1S(=O)(=O)N1CCCCC1	10
CCOc1ccccc1C(=O)NCC(=O)OCC(=O)N1C(C)CCCC1C (stereo not drawn)	2.6
COc1ccc(/C(C)=N/NC(=O)c2ccc(N(C)C)cc2)cc1	6.18
COCCCNC(=O)c1cc(C(=O)c2c(-c3c(Cl)cccc3Cl)noc2C)c[nH]1	11.9
CCC(C)(C)n1nnnc1C(c1ccncc1)N1CCC(Cc2ccccc2)CC1 (stereo not drawn)	9.24
CCCCN(C)C(=O)c1ccc(CS(=O)(=O)c2ccccc2C)o1	-15.2
COc1ccc(NC(=O)c2ccc(OC(=S)N(C)c3ccc(OC)cc3)cc2)cc1	15.7
Cc1ccccc1Cn1nc(C)c(NC(=O)c2noc3c2CCc2ccccc2-3)c1C	17.9
c1ccc(-c2noc(CSc3nnnn3-c3ccccc3)n2)cc1	7.02
Nc1c(C(=O)Nc2ccc(Cl)c(Cl)c2)sc2nc(-c3cccnc3)ccc12	6.61
Cc1ccc(O)c(-c2cc(-c3ccc(F)cc3)no2)c1	4.47
CCOc1ccc(NS(=O)(=O)c2c(C)nc3sccn3c2=O)cc1	-0.551
COc1cc(C(=O)Nc2nc(-c3cccs3)cs2)cc(OC)c1OC	19.2
Cc1ccc(CSc2nc3[nH]ncc3c(=O)[nH]2)cc1	7.57
O=C1Oc2ccccc2C(=O)/C1=C\N1CCN(c2ccccc2)CC1	5.42

SMILES	hERG current change (%, negative = inhibition) at 1uM [%]
O=C(CNS(=O)(=O)c1ccccc1)N/N=C/c1ccccc1[N+](=O)[O-]	11
CC(Oc1ccc2c(=O)c(-c3ccc(Cl)cc3)c(C(F)(F)F)oc2c1)C(=O)O (stereo not drawn)	8.68
O=C(CCN1c2ccccc2Sc2ccccc21)OCC(=O)N1CCN(C(=O)c2ccco2)CC1	-0.873
Cc1cc(NC(=O)c2ccccc2)cc(NC(=O)c2ccccc2)c1C	17.2
O=C(NCC1CCCO1)c1ccc(Br)s1 (stereo not drawn)	12.8
CCCCC1(CO)C(=O)N(c2ccccc2)N(c2ccccc2)C1=O	11.3
CCOC(=O)c1c(CSc2ccccc2)n(C)c2ccc(O)cc12	15.4
c1ccc(-c2noc(-c3ccc4ccccc4c3)n2)cc1	13.4
CCN(CC)CCC(=O)N1c2ccccc2Sc2ccc(Cl)cc21.Cl	-3.67
Cc1ccc(C)c(/C=C(\C(=O)O)c2ccc(S(=O)(=O)N3CCCCC3)s2)c1	6.97
CCN(Cc1ccccc1)C(c1ccccn1)c1nnnn1C(C)(C)CC (stereo not drawn)	6.17
O=C(Cc1ccc2c(c1)OCCO2)N1CCN(S(=O)(=O)c2cccc(Cl)c2Cl)CC1	4.06
COCCc1ncc(CN2CCC(C(=O)Nc3ccc(-n4cccn4)cc3)CC2)cn1	-5.56
CCOC(=O)C1=C(Cn2ccc(C(F)(F)F)n2)NC(=O)NC1c1ccc2c(c1)OCO2 (stereo not drawn)	4.29
Cc1c(Cc2ccccc2)c(=O)n2c([nH]c3ccccc32)c1C#N	-3.06
Cc1cc2cc(C)c3nnc(SCC(=O)N4CCCc5ccccc54)n3c2cc1C	-6.41
CCCOc1c(OC)cccc1C1CC(=O)Nc2cc3c(cc21)OCO3 (stereo not drawn)	7.27
CCOc1ccc(NC(=O)Cn2sc3nc(C)cc(C)c3c2=O)cc1	6.16
COc1ccccc1NC(=O)COc1ccc(C(F)(F)F)cc1[N+](=O)[O-]	2.82
Cc1ccc(C)c(Nc2nc3nonc3nc2N2CCOCC2)c1	17.6
CCCCCc1ccc(OCCC[n+]2ccccc2)c(CCCCC)c1.[Cl-]	-33.9
